Source: PubChem BioAssay AID504832 (National Center for Advancing Translational Sciences (NCATS), 2011)
Hit rate of the full screen: of about 310,000 compounds, about 18,000 (5.8%) were called active. Inconclusive means that the source gave no clear call. Such entries were picked first, then a sample of the others. Calls come from the whole dose curve; as a rule, active = well fitted inhibition curve with a large enough effect; inconclusive = small, poorly fitted or top-dose-only effect, or another doubt; inactive = no such curve, though single readings can be large or run the other way. No potency is given beside an inconclusive call; the fits are too rough.

Test: Primary qHTS for delayed death inhibitors of the malarial parasite plastid, 48 hour incubation
Details: P. falciparum luciferase growth in erythrocytes; series mostly up to 28.7 µM
In short: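 In quantitative HTS format, infected erythrocytes bearing luciferase-reporter parasites were treated for a single generation at 37 C. Luminescence after adding detection reagent served as the growth measure.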
Potency is the fitted concentration of half-maximal effect; tags give direction and shape of the fitted curve.

Question: With Cc1cc(C)cc(NC(=O)C(=O)NCCCN2CCOCC2)c1 as the compound, how does the Potency read?
Answer: inconclusive [inhibitor, partial curve, poor fit]

Question: Which Potency does the source give for CC(C)Nc1nc(NNc2nc(Cl)nc(NC(C)(C)C)n2)nc(NC(C)C)n1 here?
Answer: inconclusive [inhibitor, partial curve]

Question: For Cc1ccc(OCC(=O)N2CCN(C(=O)c3ccc([N+](=O)[O-])cc3)CC2)cc1, which Potency is on record?
Answer: inactive

Question: Which Potency does the source give for C/C=C(/C)C(=O)Nc1cccc(C2=NOC3(C2)C[C@H](C(N)=O)N(C(=O)c2ccc(Cl)cc2)C3)c1 (some centres undefined) here?
Answer: inconclusive [inhibitor, single point]

Question: For O=C(CCNC(=O)c1ccc(Br)cc1)NCc1ccncc1, which Potency is on record?
Answer: inactive

Question: With CCOc1ccc(C(=O)CN2CCN(S(=O)(=O)c3ccc(OC)cc3)CC2)cc1 as the compound, how does the Potency read?
Answer: inconclusive [inhibitor, single point]

Question: For O=C(CSc1nc2ccccc2o1)Nc1ccccc1, which Potency is on record?
Answer: inactive

Question: Which Potency does the source give for N/C(=N\OC(=O)N1CCOCC1)c1ccc(Br)cc1 here?
Answer: inconclusive [inhibitor, full curve, poor fit]

Question: For COc1cc2ncnc(Nc3ccc(F)c(Cl)c3)c2cc1OCCCN1CCOCC1, which Potency is on record?
Answer: active: 0.536 µM

Question: For NCCCCC(NC(=O)C1CCCN1C(=O)C1CSSCC(N)C(=O)NC(Cc2ccc(O)cc2)C(=O)NC(Cc2ccccc2)C(=O)NC(CCC(N)=O)C(=O)NC(CC(N)=O)C(=O)N1)C(=O)NCC(N)=O (centres undefined), which Potency is on record?
Answer: inactive

Question: For c1ccc(CCc2nn3c(C4COc5ccccc5O4)nnc3s2)cc1 (centres undefined), which Potency is on record?
Answer: inactive

Question: With Cc1c(C(=O)Nc2ccc(S(=O)(=O)N(C)C3CCN(C)CC3)cc2)oc2c(Cl)cccc12 as the compound, how does the Potency read?
Answer: active: 2.94 µM

Question: Which Potency does the source give for O=C(CN1C(=O)NC(Cc2c[nH]c3ccccc23)C1=O)Nc1ccc(F)c(F)c1F (centres undefined) here?
Answer: inconclusive [inhibitor, single point]

Question: With c1ccc(Nc2cccc3c(Nc4ccccc4)cccc23)cc1 as the compound, how does the Potency read?
Answer: inactive

Question: With O=P(C1=C(N2CCOCC2)/C(=C\c2ccccc2)CC1)(N1CCOCC1)N1CCOCC1 as the compound, how does the Potency read?
Answer: inconclusive [inhibitor, partial curve, poor fit]

Question: For CCOCCCN(C(=O)Cn1nnc(-c2ccc(OC)c(OC)c2)n1)C(CC)C(=O)NC1CCCC1 (centres undefined), which Potency is on record?
Answer: inconclusive [inhibitor, partial curve]

Question: For Cc1ccc2sc(N(CCN(C)C)C(=O)c3ccc4ccccc4c3)nc2c1C, which Potency is on record?
Answer: inconclusive [inhibitor, single point]

Question: With COc1cc(Cl)c(C)cc1NC(=O)COC(=O)CCc1nc2ccccc2c(=O)[nH]1 as the compound, how does the Potency read?
Answer: inactive

Question: For C/C(=N\Nc1ccc(C)c(Cl)c1)c1cccnc1, which Potency is on record?
Answer: inconclusive [inhibitor, single point]

Question: Which Potency does the source give for CCOC(=O)c1ccc(NS(=O)(=O)c2c(C)[nH]c(C)c2C(=O)N2CCCCC2)cc1 here?
Answer: inconclusive [inhibitor, single point]

Question: Which Potency does the source give for O=C(/C(=C/O)N=Nc1ccc(Cl)cc1)c1ccncc1 here?
Answer: inconclusive [inhibitor, single point]

Question: For COc1cc(NC(=O)c2cccc(Cl)c2)ccc1NC(=O)c1cccs1, which Potency is on record?
Answer: inactive

Question: Which Potency does the source give for CCOC(=O)c1c(NC(=O)/C=C/c2ccco2)sc(C)c1C here?
Answer: inconclusive [inhibitor, full curve, poor fit]

Question: With COc1cccc(CNc2ccc(N3CCCCC3)cc2)c1OC as the compound, how does the Potency read?
Answer: active: 0.522 µM

Question: With CCC(C)C(=O)OCC1(c2ccc(C)cc2OC(=O)C(C)C)CO1 (centres undefined) as the compound, how does the Potency read?
Answer: inactive

Question: Which Potency does the source give for O=c1c2cc(Br)ccc2nc(-c2cccc(C(F)(F)F)c2)n1O here?
Answer: inconclusive [inhibitor, full curve, poor fit]

Question: With Nc1nc(SCC(=O)NCc2ccccc2)n[nH]1 as the compound, how does the Potency read?
Answer: inactive

Question: With CC(C)(C)C(=O)N(Cc1ccc(Cl)cc1)c1cnccn1 as the compound, how does the Potency read?
Answer: active: 3.29 µM

Question: With CNC(C)C#Cc1ccc2c(=O)c3c(OC)cccc3oc2c1 (centres undefined) as the compound, how does the Potency read?
Answer: inconclusive [inhibitor, single point]

Question: With Cc1ccc2c(C)c(C(=O)N(Cc3ccc(N(C)C)cc3)C3CCS(=O)(=O)C3)oc2c1 (centres undefined) as the compound, how does the Potency read?
Answer: inconclusive [inhibitor, partial curve, poor fit]

Question: For Cc1ccc(-c2c[n+](CC(=O)Nc3nc(-c4ccccc4)cs3)c3n2CCC3)cc1, which Potency is on record?
Answer: inconclusive [inhibitor, single point]

Question: With O=C1Cc2cc(NS(=O)(=O)c3cc(F)ccc3F)cc3c2N1CCC3 as the compound, how does the Potency read?
Answer: inconclusive [inhibitor, partial curve]

Question: Which Potency does the source give for CSc1nc(O)c(C(c2ccc(C)cc2)c2c(O)nc(SC)[nH]c2=O)c(=O)[nH]1 here?
Answer: inactive

Question: Which Potency does the source give for COc1ccc(-c2ccc([C@H]3[C@H]4C=CC[C@@H](C)[C@@H]4C(=O)N3Cc3ccccc3)c(F)c2)cc1OC here?
Answer: inconclusive [inhibitor, partial curve]

Question: With COc1ccc2[nH]c(=O)c(C3c4cc(OC)c(OC)cc4CCN3C(=O)c3ccco3)cc2c1 (centres undefined) as the compound, how does the Potency read?
Answer: active: 13.1 µM

Question: With O=C(NCCN1CCCCC1)Nc1ccc(Cl)cc1 as the compound, how does the Potency read?
Answer: inactive

Question: Which Potency does the source give for COC(=O)CCCNC(=O)CN1CC(c2ccccc2)CC1=O (centres undefined) here?
Answer: inactive

Question: Which Potency does the source give for O=C(c1ccc(OC2CCN(Cc3ccccn3)CC2)cc1)N1CCCCO1 here?
Answer: inactive

Question: For COc1cc(NC(=O)CSc2nc3ccccc3cc2C)c(C(=O)O)cc1OC, which Potency is on record?
Answer: inactive

Question: With CCC/C(=N/NC(=O)c1ccccc1Cl)c1ccccc1 as the compound, how does the Potency read?
Answer: inactive

Question: Which Potency does the source give for Nc1nnc(CCCCCCCCCCc2nnc(N)s2)s1 here?
Answer: inconclusive [inhibitor, full curve, poor fit]

Question: With Cc1ccc2c(c1)N(CC(=O)OCC(=O)NCc1ccccc1)C(=O)CO2 as the compound, how does the Potency read?
Answer: inactive

Question: Which Potency does the source give for CNC(=S)N(Cc1cccs1)Cc1cc2cc(OC)c(OC)cc2[nH]c1=O here?
Answer: inconclusive [inhibitor, partial curve, poor fit]

Question: Which Potency does the source give for CC(=O)Nc1ccc2nc(NC(=O)c3ccc([N+](=O)[O-])s3)sc2c1 here?
Answer: inconclusive [inhibitor, single point]

Question: Which Potency does the source give for c1ccc(CCn2nnc3ccccc32)cc1 here?
Answer: inactive

Question: Which Potency does the source give for CCNC(=O)C1CCN(S(=O)(=O)c2ccc(F)cc2)CC1 here?
Answer: inconclusive [inhibitor, single point]

Question: Which Potency does the source give for CCC(C)Oc1ccccc1C1CC(=O)NC2=C1C(=O)CCC2 (centres undefined) here?
Answer: inconclusive [inhibitor, partial curve, poor fit]

Question: For C=CCn1c(=O)c2ccccc2n2c(SCC(=O)Nc3sc(C)c(CC)c3C(=O)OCC)nnc12, which Potency is on record?
Answer: inactive

Question: For COc1ccc(S(=O)(=O)N2CCC(C(=O)N[C@H](C(=O)NCc3ccco3)C(C)C)CC2)cc1, which Potency is on record?
Answer: inactive

Question: With COc1ccccc1CCNC(=O)/C(=C/c1cccnc1)NC(=O)c1ccccc1 as the compound, how does the Potency read?
Answer: inactive

Question: Which Potency does the source give for Cn1ncc2c(c(SCc3ccc(Cl)cc3Cl)nn2C)c1=O here?
Answer: active: 7.38 µM

Question: For O=C(COC(=O)c1cnccn1)N=c1sccn1Cc1ccccc1Cl, which Potency is on record?
Answer: inactive

Question: Which Potency does the source give for CCCS(=O)(=O)c1c(S(=O)(=O)CCC)c2ccc(C(N)=O)cn2c1C(=O)OC here?
Answer: inconclusive [inhibitor, partial curve, poor fit]

Question: Which Potency does the source give for COc1c(F)c(F)c(C(=O)Nc2cccc(Cl)c2N2CCOCC2)c(F)c1F here?
Answer: inconclusive [inhibitor, single point]

Question: For O=C(NCc1ccccn1)Nc1cc(Cl)cc(Cl)c1, which Potency is on record?
Answer: inconclusive [inhibitor, partial curve, poor fit]

Question: Which Potency does the source give for Cc1ccccc1CN1C(=O)CS/C1=N/N=C/c1ccco1 here?
Answer: inconclusive [inhibitor, single point]

Question: Which Potency does the source give for CC1CN(S(=O)(=O)c2ccc(C(=O)N(CCCN(C)C)c3nc4cc5c(cc4s3)OCCO5)cc2)CC(C)O1 (centres undefined) here?
Answer: inconclusive [inhibitor, partial curve, poor fit]

Question: Which Potency does the source give for Cc1cccc(OCc2nnc(N)s2)c1C here?
Answer: inconclusive [inhibitor, full curve, poor fit]

Question: For O=[N+]([O-])c1ccccc1CSc1ccccn1, which Potency is on record?
Answer: inactive

Question: With COc1cc(-c2csc(CCn3nc(C)cc3C)n2)cc(OC)c1OC as the compound, how does the Potency read?
Answer: inconclusive [inhibitor, partial curve, poor fit]

Question: With CC(NC(=O)c1cccc(S(=O)(=O)N2CCN(Cc3ccccc3)CC2)c1)c1ccc(Br)cc1 (centres undefined) as the compound, how does the Potency read?
Answer: inconclusive [inhibitor, partial curve, poor fit]

Question: With CC(=O)c1ccc(S(=O)(=O)N2CCN(C(=O)c3ccc(-n4nc(C)c(Cl)c4C)cc3)CC2)cc1 as the compound, how does the Potency read?
Answer: inconclusive [inhibitor, single point]

Question: For Cc1cccc(OCC(O)Cn2c(=N)n(Cc3ccccc3)c3ccccc32)c1 (centres undefined), which Potency is on record?
Answer: active: 5.86 µM

Question: Which Potency does the source give for Cn1c(NC(=O)/C=C/c2c(F)cccc2Cl)cc(=O)n(C)c1=O here?
Answer: inconclusive [inhibitor, full curve, poor fit]

Question: Which Potency does the source give for CCc1ccc2[nH]c(=O)c(CN(CCCN3CCOCC3)C(=O)Nc3cccc(Cl)c3)cc2c1 here?
Answer: active: 5.22 µM

Question: Which Potency does the source give for CC(=O)CSc1nc2ccc(Nc3nc(N4CCOCC4)nc(N4CCOCC4)n3)cc2s1 here?
Answer: inconclusive [inhibitor, partial curve]

Question: For Cc1ccc(C2c3[nH]c4ccccc4c3C[C@H]3C(=O)N(c4ccccc4C(=O)NCCCN4CCOCC4)C(=O)N23)cc1 (some centres undefined), which Potency is on record?
Answer: inconclusive [inhibitor, partial curve]

Question: Which Potency does the source give for CCOC(=O)N1CCN(Cc2nc3cc(NC(=O)c4cccs4)ccc3n2CC)CC1 here?
Answer: active: 2.94 µM

Question: For CN(C)C(CNC(=O)C1CCCN(C(=O)c2ccc(Cl)cc2)C1)c1ccco1 (centres undefined), which Potency is on record?
Answer: inconclusive [inhibitor, single point]
